Experimental data published in PubChem BioAssay AID485281 (National Center for Advancing Translational Sciences (NCATS), 2010).
Among all 350,000 compounds or so, about 260 (0.074%) were called active. Inconclusive results, whose numbers are uncertain, are shown with a selection of clear calls. Calls come from the whole dose curve; as a rule, active = well fitted inhibition curve with a large enough effect; inconclusive = small, poorly fitted or top-dose-only effect; inactive = no such curve, though single readings can be large or run the other way. Potencies beside an inconclusive call are fits to weak or partial responses and may not hold up.

Target: Ferritin light chain (Equus caballus) (UniProt P02791)
Assay: qHTS Assay for Identification of Novel General Anesthetics; note: nearly all actives have a fitted effect of over 20% in size
Settings: apoferritin/1-aminoanthracene competitive binding, fluorescence; activity change, negative = displacement: at 77.5 µM (top of the series)
Procedure, shortened: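 In PBS, apoferritin at 10 uM is loaded with 1-AMA from a 50% saturated solution. After 10 min of compound exposure at ambient temperature, reduced 535 nm fluorescence indicates probe displacement.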
% is set by controls: 0 for no effect and ±100 for the full control effect; potency is the fitted concentration of half-maximal effect; tags give direction and shape of the fitted curve.

Chain of UniProt P02791 (P02791 whole entry, looked up): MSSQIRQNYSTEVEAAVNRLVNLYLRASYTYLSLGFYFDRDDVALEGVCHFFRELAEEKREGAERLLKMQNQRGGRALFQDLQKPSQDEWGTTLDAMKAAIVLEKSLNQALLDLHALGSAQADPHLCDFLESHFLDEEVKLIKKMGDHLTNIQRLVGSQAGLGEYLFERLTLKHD

Potency, inactive:
Cc1ccc(-c2n[nH]c3c2C(c2cccc(O)c2)N(c2ccc(C(=O)O)cc2)C3=O)cc1 (stereo not drawn)

Potency, inconclusive:
S=C(c1ccc(N2CCCC2)c(Br)c1)N1CCCCC1 14.1 µM [inhibitor, partial curve]
O=C(CN1C(=O)NC2(CCc3ccccc32)C1=O)Nc1cc(C(F)(F)F)ccc1N1CCOCC1 (stereo not drawn) 50.1 µM [inhibitor, single point]
CCOc1ccc(C2c3c(oc4cc(C)c(C)cc4c3=O)C(=O)N2CCCN2CCOCC2)cc1 (stereo not drawn) 39.8 µM [inhibitor, partial curve]
Cc1cc(NC(=O)NCc2ccccc2)c(=O)n(Cc2ccc(F)cc2)c1 5.01 µM [inhibitor, full curve]
O=S(=O)(c1ccc(NC2CCCc3ccccc32)nc1)N1CCOCC1 (stereo not drawn) 14.1 µM [inhibitor, partial curve]
CCOP(=O)(OCC)C(Nc1ccc([N+](=O)[O-])cc1)c1ccc(Cl)cc1 (stereo not drawn) 31.6 µM [inhibitor, single point]
O=C(Cn1nc(N2CCN(c3ccccc3)CC2)ccc1=O)Nc1ccc(F)cc1F 28.2 µM [inhibitor, partial curve]
Cc1cc(C(C)(C)C)cc(C)c1C[n+]1ccc2ccccc2c1 31.6 µM [inhibitor, single point]
CCn1c(SC(C)C)nnc1-c1c[nH]c2ccccc12 25.1 µM [inhibitor, partial curve]
COC(=O)CC/C(O)=C1\C(=O)CC(C)(C)CC1=Nc1ccccc1OC 35.5 µM [inhibitor, partial curve]
Cc1ccc(NS(=O)(=O)c2cc(C(N)=O)ccc2C)cc1 22.4 µM [inhibitor, partial curve]
COc1ccc(NC(=O)Nc2nc3c(s2)CCCC3)cc1 44.7 µM [inhibitor, single point]
CC12CCC(=O)N1C(C(=O)OCC(=O)Nc1sccc1C#N)CS2 (stereo not drawn) 56.2 µM [inhibitor, single point]
CC1(C)C(=O)OC(/C=C\c2ccccc2)C(C)(C)C1=O (stereo not drawn) 5.62 µM [inhibitor, partial curve]
COc1ccc(CCNS(=O)(=O)c2cccc([N+](=O)[O-])c2)cc1 39.8 µM [inhibitor, partial curve]
O=C(CSc1nc(-c2ccccc2)cs1)Nc1cccc([N+](=O)[O-])c1 10 µM [inhibitor, partial curve]

Activity change, negative = displacement, inactive:
COc1cccc(C(=O)c2cc3cc(Cl)ccc3[nH]2)c1 -2.29%
